Source: the supplement of paper PMC4967469

compound: CCn1cc(-c2ccnc3[nH]c(-c4cccc(CN(C)C)c4)cc23)c(-c2ccc(NC(=O)N(C)C)cc2)n1 [GSK1070916]; test: Viability of human cancer cell lines after 72 h of drug (GDSC screen); conditions: top dose inferred
Procedure: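 Human cancer cell lines in 384-well plates, medium with 10% serum, drug for 72 h over a 256-fold dose range (nine 2-fold or five 4-fold steps up to the top dose). Adherent lines were fixed and stained with the nucleic acid dye Syto60, suspension lines read with resazurin; signal relative to control wells, capped at 0 and 100%. One two-parameter sigmoid per drug and line, fitted in a mixed model over all curves with the slope shared within a line.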

Point of comparison: “H2373 (mesothelioma, adherent, top dose 2.56 µM)”, AUC 0.979. Against it:
- BHY (head and neck, adherent, top dose 2.56 µM) — lower, 0.932
- U-87-MG (glioma, adherent, top dose 2.56 µM) — lower, 0.973
- NCI-H1436 (small cell lung carcinoma, suspension, top dose 2.56 µM) — lower, 0.838
- CHSA8926 (chondrosarcoma, adherent, top dose 2.56 µM) — lower, 0.933
- RH-41 (rhabdomyosarcoma, adherent, top dose 2.56 µM) — lower, 0.943
- KARPAS-299 (anaplastic large cell lymphoma, suspension, top dose 2.56 µM) — higher, 0.988
- NEC8 (testis, adherent, top dose 2.56 µM) — lower, 0.955
- DBTRG-05MG (glioma, adherent, top dose 2.56 µM) — lower, 0.94
- SK-N-AS (neuroblastoma, adherent, top dose 2.56 µM) — lower, 0.85
- OC-314 (ovary, adherent, top dose 2.56 µM) — lower, 0.936
- ETK-1 (biliary tract, adherent, top dose 2.56 µM) — lower, 0.895
- EFO-27 (ovary, adherent, top dose 2.56 µM) — lower, 0.94
- KCL-22 (chronic myeloid leukaemia, suspension, top dose 2.56 µM) — lower, 0.881
- ChaGo-K-1 (non-small cell lung carcinoma, adherent, top dose 2.56 µM) — lower, 0.93
- SIMA (neuroblastoma, adherent, top dose 2.56 µM) — lower, 0.868
- NU-DUL-1 (B-cell lymphoma, suspension, top dose 2.56 µM) — lower, 0.573
- KMS-11 (myeloma, suspension, top dose 2.56 µM) — lower, 0.95
- CAL-72 (osteosarcoma, adherent, top dose 2.56 µM) — higher, 0.984
- MDST8 (large intestine, adherent, top dose 2.56 µM) — lower, 0.967
- HT (B-cell lymphoma, suspension, top dose 2.56 µM) — higher, 0.988
- PF-382 (T-cell lymphoblastic leukaemia, suspension, top dose 2.56 µM) — lower, 0.083
- CCRF-CEM (lymphoblastic leukaemia, suspension, top dose 2.56 µM) — lower, 0.064
- SCC-4 (head and neck, adherent, top dose 2.56 µM) — lower, 0.974
- STS-0421 (soft tissue, adherent, top dose 2.56 µM) — lower, 0.549
- OVCA433 (ovary, adherent, top dose 2.56 µM) — lower, 0.958
- H290 (mesothelioma, adherent, top dose 2.56 µM) — lower, 0.956
- LB1047-RCC (kidney, adherent, top dose 2.56 µM) — lower, 0.978
- PANC-03-27 (pancreas, adherent, top dose 2.56 µM) — lower, 0.946
- SNU-475 (liver, adherent, top dose 2.56 µM) — lower, 0.965
- CCF-STTG1 (glioma, adherent, top dose 2.56 µM) — lower, 0.963
- OCI-AML3 (acute myeloid leukaemia, suspension, top dose 2.56 µM) — lower, 0.812
- D-566MG (glioma, adherent, top dose 2.56 µM) — lower, 0.838
- HuO9 (osteosarcoma, adherent, top dose 2.56 µM) — lower, 0.932
- SW1573 (lung adenocarcinoma, adherent, top dose 2.56 µM) — lower, 0.964
- QGP-1 (pancreas, adherent, top dose 2.56 µM) — lower, 0.854
- SW1088 (glioma, adherent, top dose 2.56 µM) — lower, 0.972
- PANC-04-03 (pancreas, adherent, top dose 2.56 µM) — lower, 0.954
- HCC202 (breast, adherent, top dose 2.56 µM) — lower, 0.917

Point of comparison: “NU-DUL-1 (B-cell lymphoma, suspension, top dose 2.56 µM)”, IC50 244 nM. Against it:
- BHY (head and neck, adherent, top dose 2.56 µM) — higher, > 2560 nM
- U-87-MG (glioma, adherent, top dose 2.56 µM) — higher, > 2560 nM
- NCI-H1436 (small cell lung carcinoma, suspension, top dose 2.56 µM) — 8.6-fold higher, 2100 nM
- CHSA8926 (chondrosarcoma, adherent, top dose 2.56 µM) — higher, > 2560 nM
- RH-41 (rhabdomyosarcoma, adherent, top dose 2.56 µM) — higher, > 2560 nM
- KARPAS-299 (anaplastic large cell lymphoma, suspension, top dose 2.56 µM) — higher, > 2560 nM
- NEC8 (testis, adherent, top dose 2.56 µM) — higher, > 2560 nM
- DBTRG-05MG (glioma, adherent, top dose 2.56 µM) — higher, > 2560 nM
- SK-N-AS (neuroblastoma, adherent, top dose 2.56 µM) — 9.9-fold higher, 2410 nM
- OC-314 (ovary, adherent, top dose 2.56 µM) — higher, > 2560 nM
- ETK-1 (biliary tract, adherent, top dose 2.56 µM) — higher, > 2560 nM
- EFO-27 (ovary, adherent, top dose 2.56 µM) — higher, > 2560 nM
- KCL-22 (chronic myeloid leukaemia, suspension, top dose 2.56 µM) — 8-fold higher, 1940 nM
- ChaGo-K-1 (non-small cell lung carcinoma, adherent, top dose 2.56 µM) — higher, > 2560 nM
- SIMA (neuroblastoma, adherent, top dose 2.56 µM) — higher, > 2560 nM
- H2373 (mesothelioma, adherent, top dose 2.56 µM) — higher, > 2560 nM
- KMS-11 (myeloma, suspension, top dose 2.56 µM) — higher, > 2560 nM
- CAL-72 (osteosarcoma, adherent, top dose 2.56 µM) — higher, > 2560 nM
- MDST8 (large intestine, adherent, top dose 2.56 µM) — higher, > 2560 nM
- HT (B-cell lymphoma, suspension, top dose 2.56 µM) — higher, > 2560 nM
- PF-382 (T-cell lymphoblastic leukaemia, suspension, top dose 2.56 µM) — lower, < 10 nM
- CCRF-CEM (lymphoblastic leukaemia, suspension, top dose 2.56 µM) — lower, < 10 nM
- SCC-4 (head and neck, adherent, top dose 2.56 µM) — higher, > 2560 nM
- STS-0421 (soft tissue, adherent, top dose 2.56 µM) — within 1.5-fold, 223 nM
- OVCA433 (ovary, adherent, top dose 2.56 µM) — higher, > 2560 nM
- H290 (mesothelioma, adherent, top dose 2.56 µM) — higher, > 2560 nM
- LB1047-RCC (kidney, adherent, top dose 2.56 µM) — higher, > 2560 nM
- PANC-03-27 (pancreas, adherent, top dose 2.56 µM) — higher, > 2560 nM
- SNU-475 (liver, adherent, top dose 2.56 µM) — higher, > 2560 nM
- CCF-STTG1 (glioma, adherent, top dose 2.56 µM) — higher, > 2560 nM
- OCI-AML3 (acute myeloid leukaemia, suspension, top dose 2.56 µM) — 4.6-fold higher, 1130 nM
- D-566MG (glioma, adherent, top dose 2.56 µM) — 6.9-fold higher, 1690 nM
- HuO9 (osteosarcoma, adherent, top dose 2.56 µM) — higher, > 2560 nM
- SW1573 (lung adenocarcinoma, adherent, top dose 2.56 µM) — higher, > 2560 nM
- QGP-1 (pancreas, adherent, top dose 2.56 µM) — higher, > 2560 nM
- SW1088 (glioma, adherent, top dose 2.56 µM) — higher, > 2560 nM
- PANC-04-03 (pancreas, adherent, top dose 2.56 µM) — higher, > 2560 nM
- HCC202 (breast, adherent, top dose 2.56 µM) — higher, > 2560 nM

IC50 is the fitted dose that halves viability relative to control wells, and lower means more sensitive; where the fit passes the top or lowest dose, that dose stands as a limit. AUC, from the same fit, is the share of area under the viability curve across the 256-fold dose range; values near 1 show little effect. Any top dose called inferred is not printed in the source and was worked back from the curve model.
